In the supplement of paper PMC10338343:
± gives the standard deviation. The full ranking holds about 3,000 sequences; the median of “pre-steady-state target cleavage rate” is about 0.0079, and the highest 2% start at about 0.2. This is a selection; strong and weak results do not stand in their true shares.

Tested on: MILI (PIWIL2) piRISC loaded with piRNA #2 (26 nt)
Test: pre-steady-state target cleavage rate (min^-1); MIWI and MILI are mouse PIWI proteins and EfPiwi is from a freshwater sponge; tags in brackets are library labels; higher = faster piRNA-guided slicing of the target
Conditions: guide: piRNA #2 5'p-UUAGGUAACCCAGUAGAUCCAGAGGA; auxiliary factor: 500 nM mouse GTSF1
Outline: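 Cleave-'n-Seq measured uncleaved targets by sequencing after a transcribed, DNA-blocked target RNA library […] was mixed with 1 nM active affinity-purified piRISC holding one synthetic guide, with or without 500 nM GTSF1 partner protein, at 33 °C in HEPES–potassium acetate buffer for 0–8 or 0–960 min. Counts were normalised to depth and to weakly complementary targets, three trials were pooled, and k3 was capped at 0.0001 min^-1. A burst-and-steady-state fit gave the pre-steady-state cleavage rate.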
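Further: 1 nM active piRISC with 0.1 nM target library at 33 °C single turnover.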

Row | Sequence | pre-steady-state target cleavage rate
1 | CUUAACCUCUGGAUCUACUGGGUUACGUUA | 0.0873 ± 0.019
2 | CUUAAGGAGACCUACACUGGGUUACCUAA | < 0.0001
3 | CUUAACCACAGGAUCUACUGGGUUACCUAA | 0.0274 ± 0.011
4 | CUUAUCGUCUGGAUGUACUGGGUUACCUAA | 0.0226 ± 0.018
5 | CUUAAGGUCUGGAACUACUGGGAUACCUAA | 0.0098 ± 0.0064
6 | CUUAAGGAGAGGAUCUACUAGGUUACCUAA | 0.00503 ± 0.0028
7 | CUUAAGGAGACCUACUACUGGCUUACCAAA | < 0.0001
8 | CUUAAGGUCUGGUUCUACUGCGUUACCUAA | 0.0107 ± 0.008
9 | CUUAAGGUCUGCAACUACUGGGUUACCUAA | 0.0152 ± 0.01
10 | CUUAAGGUCUGGAUCUACUGGGUUACCUGA | 0.0814 ± 0.03
11 | CUUAAGCUCAGGAUCUUCUGGGUUACCUAA | 0.05 ± 0.015
12 | CUUAAGGUCAGGAUCUACUGGGUAACCUAA | 0.0125 ± 0.0079
13 | CUUAAGGUCUGGAUCUACUGGGGUUACCUAA | 0.0236 ± 0.0061
14 | CUUAAGCUCUGGAUCUACUGGGUUACCAUAA | 0.0886 ± 0.019
15 | CUUAUCCUCUGCAUCUACUGGGUUACCAAA | 0.408 ± 0.12
16 | CUUAAGGUGUGCAUCUACUGGGUUACCUAA | 0.0305 ± 0.017
17 | CUUAAGGACUGGUUCUACUGGGUUACCUAA | 0.0227 ± 0.015
18 | CUUAAGGAGAGGAUCUACUGGGUUACCAUA | 0.00706 ± 0.0034
19 | CUUAACCUGCUGGAUCUACUGGGUUACCUAA | 0.12 ± 0.029
20 | CUUAACCUCUGGAUCUUCUGGGUUAGCUAA | 0.0589 ± 0.017

Row | Sequence | pre-steady-state target cleavage rate
21 | CUUAAGGAGUGCAUCUACUGGGUUACCUAA | 0.0147 ± 0.0078
22 | CUUAUCCUCAGGAUCUACUGGGUUACCUUA | 0.0743 ± 0.016
23 | CUUAACCUCUGGAUGUACUGCGUUACCUAA | 0.0173 ± 0.0066
24 | CUUAAGGUCUGGAUCUACUGGGUUCCCUAA | 0.0161 ± 0.0069
25 | CUUAACCUCUGGAACUACUGGGUUACCUUA | 0.154 ± 0.045
26 | CUUAUGCUCUGGAUCUAGUGGGUUACCUAA | 0.0331 ± 0.0066
27 | CUUAUCCUCUCGAUCUACUGGGUUAGCUAA | 0.116 ± 0.027
28 | CUUAAGGUCUGGAACUACUGGGUUACCUAA | 0.0452 ± 0.019
29 | CUUAUCCUGUGGAUCUAGUGGGUUACCUAA | 0.0634 ± 0.01
30 | CUUAUCCUGUGGAUCUACUGGGAUACCUAA | 0.0135 ± 0.0047
31 | CUUAUCCUCUGGAUCUACUGGGUUACAUAA | 0.0919 ± 0.021
32 | CUUAUCCUCUGCAUCUUCUGGGUUACCUAA | 0.17 ± 0.038
33 | CUUAACCUCUGGAUCUACUGGGUGACCUAA | 0.0533 ± 0.014
34 | CUUAACCGUCUGGAUCUACUGGGUUACCUAA | 0.0898 ± 0.024
35 | CUUAAGCUCUGGAUCUACUGGGUGUACCUAA | 0.0345 ± 0.0091
36 | CUUAAGGUCUGGAUCUACUGGGAUUACCUAA | 0.0236 ± 0.008
37 | CUUAUCCACUGGAUCAACUGGGUUACCUAA | 0.0536 ± 0.0086
38 | CUUAAGCUGUGGAUCAACUGGGUUACCUAA | 0.0291 ± 0.011
39 | CUUAUCCUUGGAUCUACUGGGUUACCUAA | 0.127 ± 0.04
40 | CUUAACCUGUGCAUCUACUGGGUUACCUAA | 0.123 ± 0.026
